In the supplement of paper PMC4967469:

Legend:
Assay in all cases: Viability of human cancer cell lines after 72 h of drug (GDSC screen)
Thapsigargin = compound: C/C=C(/C)C(=O)O[C@H]1C(C)=C2[C@H]([C@@H]1OC(=O)CCCCCCC)[C@@](C)(OC(C)=O)C[C@H](OC(=O)CCC)[C@@]1(O)[C@H]2OC(=O)[C@@]1(C)O [Thapsigargin]; conditions: top dose 0.512 µM; top dose inferred
Description: (§1)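 Human cancer cell lines in 384-well plates, medium with 10% serum, drug for 72 h over a 256-fold dose range (nine 2-fold or five 4-fold steps up to the top dose). Adherent lines were fixed and stained with the nucleic acid dye Syto60, suspension lines read with resazurin; signal relative to control wells, capped at 0 and 100%. One two-parameter sigmoid per drug and line, fitted in a mixed model over all curves with the slope shared within a line.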

QL-X-138 = compound: C=CC(=O)Nc1cc(-n2c(=O)ccc3cnc4ccc(-c5cn[nH]c5)cc4c32)ccc1C [QL-X-138]; conditions: top dose 10.24 µM; top dose inferred
Description: as §1

GSK269962A = compound: CCn1c(-c2nonc2N)nc2cnc(Oc3cccc(NC(=O)c4ccc(OCCN5CCOCC5)cc4)c3)cc21 [GSK269962A]; conditions: top dose inferred
Description: as §1

MPS-1-IN-1 = compound: COc1cc(N2CCC(O)CC2)ccc1Nc1cc(Nc2ccccc2S(=O)(=O)C(C)C)c2cc[nH]c2n1 [MPS-1-IN-1]; conditions: top dose 20 µM; top dose inferred
Description: as §1

(5Z)-7-Oxozeaenol = compound: COc1cc(O)c2c(c1)/C=C/C[C@H](O)[C@H](O)C(=O)/C=C\C[C@H](C)OC2=O [(5Z)-7-Oxozeaenol]; conditions: top dose 10 µM; top dose inferred
Description: as §1

CP466722 = compound: COc1cc2ncnc(-n3nc(-c4ccccn4)nc3N)c2cc1OC [CP466722]; conditions: top dose 16 µM; top dose inferred
Description: as §1

Zibotentan = compound: COc1nc(C)cnc1NS(=O)(=O)c1cccnc1-c1ccc(-c2nnco2)cc1 [Zibotentan]; conditions: top dose 20 µM; top dose inferred
Description: as §1

ABT-888 = compound: C[C@]1(c2nc3c(C(N)=O)cccc3[nH]2)CCCN1 [ABT-888]; conditions: top dose 5 µM; top dose inferred
Description: as §1

CMK = compound: Cc1ccc(-c2c(C(=O)CCl)n(CCCO)c3ncnc(N)c23)cc1 [CMK]; conditions: top dose 4 µM; top dose inferred
Description: as §1

ABT-869 = compound: Cc1ccc(F)c(NC(=O)Nc2ccc(-c3cccc4[nH]nc(N)c34)cc2)c1 [ABT-869]; conditions: top dose 1.024 µM; top dose inferred
Description: as §1

CHIR-99021 = compound: Cc1cnc(-c2cnc(NCCNc3ccc(C#N)cn3)nc2-c2ccc(Cl)cc2Cl)[nH]1 [CHIR-99021]
Description: as §1

KU-55933 = compound: O=c1cc(-c2cccc3c2Sc2ccccc2S3)oc(N2CCOCC2)c1 [KU-55933]; conditions: top dose 10 µM
Description: as §1

[1] = top dose 2.5 µM, screen: GDSC drug entry 127
[2] = top dose 5 µM, screen: GDSC drug entry 1192
[3] = top dose 2.56 µM, screen: GDSC drug entry 154
[4] = top dose 10 µM, screen: GDSC drug entry 1241, top dose inferred

Cell Line	AUC (Thapsigargin)	IC50 (Thapsigargin)	AUC (QL-X-138)	IC50 (QL-X-138)	AUC (GSK269962A; [1])	IC50 (GSK269962A; [1])	AUC (GSK269962A; [2])	IC50 (GSK269962A; [2])	AUC (MPS-1-IN-1)	IC50 (MPS-1-IN-1)	AUC ((5Z)-7-Oxozeaenol)	IC50 ((5Z)-7-Oxozeaenol)	AUC (CP466722)	IC50 (CP466722)	AUC (Zibotentan)	IC50 (Zibotentan)	AUC (ABT-888)	IC50 (ABT-888)	AUC (CMK)	IC50 (CMK)	AUC (ABT-869)	IC50 (ABT-869)	AUC (CHIR-99021; [3])	IC50 (CHIR-99021; [3])	AUC (CHIR-99021; [4])	IC50 (CHIR-99021; [4])	AUC (KU-55933)	IC50 (KU-55933)
BB65-RCC (kidney, adherent)	0.24	0.00495 µM	0.819	7.01 µM	0.956	> 2.5 µM	0.868	> 5 µM	0.98	> 20 µM	0.694	2.39 µM	0.903	> 16 µM	0.983	> 20 µM	0.946	> 5 µM	0.855	3.97 µM	0.983	> 1.02 µM	0.903	> 2.56 µM	0.832	7.78 µM		
DU-4475 (breast, suspension)	0.221				0.988	> 2.5 µM	0.944	> 5 µM	0.919	> 20 µM	0.23	0.125 µM	0.802	6.24 µM	0.992	> 20 µM	0.992	> 5 µM	0.98	> 4 µM	0.99	> 1.02 µM	0.992	> 2.56 µM	0.969	> 10 µM	0.981	> 10 µM
JAR (urogenital system, adherent)	0.986	> 0.512 µM	0.777	4.01 µM	0.937	> 2.5 µM	0.761	1.74 µM	0.968	> 20 µM	0.695	2.18 µM	0.66	2.76 µM	0.986	> 20 µM			0.887	> 4 µM	0.988	> 1.02 µM	0.988	> 2.56 µM	0.909	> 10 µM	0.977	> 10 µM
KASUMI-1 (acute myeloid leukaemia, suspension)			0.436	0.428 µM	0.985	> 2.5 µM	0.485	0.284 µM			0.41	0.353 µM	0.263	0.21 µM			0.97	> 5 µM	0.918	> 4 µM	0.292	0.0165 µM	0.959	> 2.56 µM	0.842	7.08 µM		
KG-1 (acute myeloid leukaemia, suspension)	0.624		0.572	0.982 µM	0.955	> 2.5 µM	0.812	2.33 µM	0.923	> 20 µM	0.451	0.467 µM	0.675	2.9 µM	0.99	> 20 µM			0.974	> 4 µM	0.909	> 1.02 µM	0.99	> 2.56 µM	0.989	> 10 µM	0.977	> 10 µM

A lower IC50 marks a more sensitive line; fits outside the tested doses are given as limits. The AUC spans the tested range (256-fold, ending at the top dose) of the same fit; values near 1 show little effect. For some assays here: An inferred top dose was calculated from the reported fits. For some assays here: Where an entry number is given, a second screen of the drug exists; the two often differ.
